Data published in PubChem BioAssay AID493208 (National Center for Advancing Translational Sciences (NCATS), 2011).
Screen size: about 44,000 compounds; about 340 (0.77%) were called active. Not shown: some 5% with an inconclusive outcome. Calls follow the shape of the dose curve; as a rule, active = well fitted inhibition curve with a large enough effect; inconclusive = small, poorly fitted or top-dose-only effect; inactive = flat fitted curve, though single readings scatter. The list shows a part of the results.

Experiment: Acumen qHTS Assay for Inhibitors of the mTORC1 Signaling Pathway in MEF (Tsc2-/-, p53-/-) Cells: Sytravon;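 also: plate controls were DMSO for no effect and rapamycin for full effect; nearly all actives have a fitted effect of over 50% in size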
Conditions: phospho-rpS6 immunofluorescence/PI, 24 h; series mostly up to 38.3 µM; activity change, negative = inhibition: at the top concentration
Method in brief: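 Plate MEFs (Tsc2-/-, p53-/-, empty vector) in DMEM/10% FBS; after 24 h add compound, incubate 24 h at 37 degree Celsius; fix in PFA/TX-100, block, stain phospho-rpS6 and 10 uM PI; scan at 488 nm; report % positive cells.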

Activity change, negative = inhibition, inactive:
CCCC(=O)N1CCN(c2nc3ccc(F)cc3s2)CC1 -5.19%
COc1cc(OC)c(NC(=O)c2cc3c(=O)oc4ccc(C)cc4c3s2)cc1Cl -1.15%
Cc1ccc(-n2ncc3c(NCCO)ncnc32)cc1Cl 9.15%
Cc1cc(NC(=O)c2cc(-c3ccc(Cl)cc3)on2)n(-c2ccccc2)n1 -13%
COc1ccc(CNC(=O)Cc2ccc(NC(=O)N3CCSc4ncccc43)cc2)cc1OC -4.01%
COC(=O)c1cc2oc3ccccc3c2n1CC(=O)Nc1ccc(C)c(F)c1 -3.18%
COc1ccc(-c2cc(C(=O)Nc3cccnc3)no2)cc1OC -0.149%
COc1cc(NC(=O)c2ccc3oc(=O)c(S(=O)(=O)c4ccccc4)cc3c2)cc(OC)c1 -2.8%
COc1ccc(S(=O)(=O)Nc2cccc(-c3ccc(N4CCC(C)CC4)nn3)c2)c(OC)c1 0.603%
CCOc1ccc(NC(=O)Cn2c(=O)n(-c3cccc(Cl)c3)c(=O)c3c2c2cc(C)ccc2n3C)cc1 0%
CCOc1cccc(C2c3[nH]c4ccccc4c3CCN2C(=O)CSc2ccccc2)c1 (stereo not given) -25.5%
Cc1cccc(C(=O)N2CCc3cc(CNC(=O)COc4ccc(Cl)cc4)ccc32)c1 -12.5%
CC(C)c1ccc(NC(=O)C2CCN(S(=O)(=O)c3cccc4nonc34)CC2)cc1 -27.5%
Cc1ccccc1Nc1c(-c2ccc(Cl)cc2)nc2c(C)cccn12 -9.2%
Cc1ccc(N2C(=O)CSC23C(=O)N(Cc2ccccc2F)c2ccccc23)cc1F (stereo not given) -3.28%
COc1ccc(NC(=O)Cn2c(=O)n(CCc3ccccc3)c(=O)c3c4c(sc32)CCCC4)cc1 2.53%
Cc1ccccc1NC(=O)CSc1cn(CC(=O)N2CCCCCC2)c2ccccc12 2.19%
Cc1nc(SCC(=O)Nc2ccccc2C)cc(-c2ccccc2)n1 2.81%
COc1cc2c(=O)c(C(=O)c3ccc(C)c(C)c3)cn(Cc3ccc(F)cc3)c2cc1OC -6.35%
CCOc1ccccc1NC(=O)c1ccc2c(c1)CCN2S(=O)(=O)c1ccc(C)cc1 1.86%
CCOC(=O)c1c(C)[nH]c(C)c1S(=O)(=O)NCC(=O)Nc1ccc(C)c(N(C)C)c1 -4.65%
CCOc1cc(CNC(=O)Cn2c(=O)c3cccn3c3ccc(F)cc32)cc(OCC)c1OCC 8.45%
CCSc1nnc2c(n1)OC(c1cc(OC)c(OC)c(OC)c1)Nc1ccccc1-2 (stereo not given) -9.21%
CCC(CC)c1nn2c(=O)cc(COc3ccc(NC(=O)c4ccccc4C)cc3)nc2s1 6.85%
COc1cc(NS(=O)(=O)c2ccc(NC(=O)c3cccc(F)c3)cc2)nc(OC)n1 8.49%
CCC1CN(S(=O)(=O)c2cc(-c3cc(C)no3)ccc2C)c2cc(Cl)ccc2O1 (stereo not given) -7.66%
COc1cc(NC(=O)CC2C(=O)OCCN2Cc2ccccc2)cc(OC)c1 (stereo not given) -14.6%
Cc1ccccc1NC(=O)c1ccc2[nH]c(C)c(C)c2c1 -3.14%
COc1cccc(Cn2c(=O)cc(C)c3c(C)nn(C)c32)c1 -9.96%
CCCc1nn2c(=O)cc(COC(=O)c3cccc(NC(=O)c4cccs4)c3)nc2s1 9.15%
CCc1cccc(C)c1NC(=O)CCS(=O)(=O)c1cc(Br)cc2c1N(C(=O)C1CC1)CC2 1.34%
Cc1c(Cl)cccc1NC(=O)Cn1c(=O)n(Cc2ccco2)c(=O)c2sc3ccccc3c21 -9.94%
Cc1c(C(=O)NCc2ccc(Cl)cc2)sc2nc3n(c(=O)c12)CCCCC3 5.88%
COc1ccc(S(=O)Cc2ccc(C(=O)N3CCN(c4cccc(C)c4C)CC3)o2)cc1 (stereo not given) -28.3%
O=C(Nc1ccc(C(=O)OCc2cc(=O)n3c4c(sc3n2)CCCC4)cc1)c1ccc(F)cc1 2.07%
O=C(CCCCn1c(=O)c2ccccc2n(CC(=O)Nc2cccc(C(F)(F)F)c2)c1=O)NCc1ccc2c(c1)OCO2 -10.7%
CCc1nn2c(-c3ccccc3OC)ccnc2c1-c1ccccc1 14.2%
Cc1ccccc1NC(=O)c1ccc(F)c(S(=O)(=O)N2CCN(c3ccccc3F)CC2)c1 -0.649%
COc1ccc(-c2nc(CSc3nncn4c3cc3oc(C)cc34)c(C)o2)cc1 -1.59%
Cc1ccc(Cl)cc1NC(=O)COC(=O)CC(C)(C)CC1=NS(=O)(=O)c2ccccc2N1 -19%
O=C(NCCc1ccccc1)C(=O)NCC(c1ccco1)S(=O)(=O)c1cccs1 (stereo not given) -6.05%
Cc1ccc(-n2nnc(-c3nc(-c4cccs4)no3)c2N)cc1C 6.6%
CCOC(=O)c1ccccc1NC(=O)CN1CCCN(Cc2cc(C)ccc2C)S1(=O)=O -4.08%
COc1cc(NC(=O)CN2C(=O)c3ccccc3Sc3ccc(C(=O)N4CCCC4)cc32)cc(OC)c1 -3.16%
COc1ccc(OC)c(CCNC(=O)c2ccc3c(c2)c(C)c(C)n3Cc2ccccc2)c1 7.21%
CCOC(=O)c1[nH]c2ccccc2c1NC(=O)c1ccccc1F 4.21%
Cc1oc2ncnc(N3CCCCC3)c2c1C(=O)NCC1CCN(Cc2cccc(F)c2)CC1 -22.8%
CCN1CCN(CCCNC(=O)CS(=O)(=O)Cc2nc(-c3cccc(OC)c3)oc2C)CC1 -11.4%
CCC(C)NS(=O)(=O)c1ccc(N2CCCCS2(=O)=O)cc1 (stereo not given) 4.15%
COc1ccc(C)cc1NC(=O)C1CCCN(S(=O)(=O)c2ccc3c(c2)CCCN3C(C)=O)C1 (stereo not given) -4.52%
Cc1ccc(C(=O)Nc2ccc(C(=O)O)cc2)cc1S(=O)(=O)Nc1ccccc1 -1.08%
Cc1ccc(-n2c3c(c(=O)[nH]c2=O)C(NS(=O)(=O)c2ccc(Cl)cc2)(C(F)(F)F)C(=O)N3)cc1 (stereo not given) 2.88%
Fc1cccc(NCc2ccccc2-c2nnc(-c3ccccc3Cl)o2)c1 -12%
NC(=O)C1CCN(c2ncnc3c2cnn3-c2ccccc2)CC1 -5.46%
O=c1c2oc3ccccc3c2n(Cc2ccc(Cl)cc2)c(=O)n1Cc1ccc2c(c1)OCO2 -1.07%
CCC(CC)C(=O)Nc1nnc(SCc2cc(=O)c3ccccc3[nH]2)s1 -3.22%
COCCNC(=O)CSc1nc2cc3c(cc2c(=O)n1CCCC(=O)NCCc1ccc(OC)c(OC)c1)OCO3 -4.71%
CCC(C)(C)NC(=O)C1CCC(CNS(=O)(=O)c2ccc3c(c2)CC(C)N3C(C)=O)CC1 (stereo not given) -19.2%
Cc1ccc(Cl)cc1N1CCN(C2(c3ccccc3)C(=O)c3ccccc3C2=O)CC1 -8.85%
COc1cccc(NC(=O)Cn2c(=O)n(-c3cccc(OC)c3)c(=O)c3sc4ccccc4c32)c1 -10.1%
